Assay results published in the supplement of paper PMC6609913.
Counter-ions that a name gives are not always drawn. ± gives the standard deviation of the averaged measurements. The full ranking holds about 1,300 compounds; the median of “normalised cell viability” is about 1, and the lowest 2% start at about 0.14. This is one part of the list.

Tested on: V-C8 (BRCA2-deficient hamster cells)
Test: normalised cell viability (fraction of plate median); higher = more viable cells (less toxic)
Details: 5 µM
Method in brief: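 Cell viability was measured with a resazurin assay, normalised to the plate median (modified robust per cent of sample) and averaged over triplicate wells. Hamster V-C8 cells lacking BRCA2 and V-C8 cells with BRCA2 restored were seeded in 96-well plates. After 24 h, library drugs from 10 mM DMSO stocks were added at a final 5 μM in 100 μl medium and left for 3 days (screen 1) or 6 days (screen 2), with solvent-only wells alongside.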

SMILES | normalised cell viability (treatment time: 3 days) | normalised cell viability (treatment time: 6 days)
CC1(C)S[C@@H]2[C@H](NC(=O)[C@H](NC(=O)N3CCNC3=O)c3ccccc3)C(=O)N2[C@H]1C(=O)O [Azlocillin sodium salt] | 1.01 ± 0.015 | 0.988 ± 0.092
Clc1cnccn1 [2-Chloropyrazine] | 1.03 ± 0.019 | 1.02 ± 0.016
NCCNCCNCCNCCN [Tetraethylenepentamine pentahydrochloride] | 0.975 ± 0.061 | 0.874 ± 0.032
Cc1cc2c(cc1S(N)(=O)=O)S(=O)(=O)CCC2 [Meticrane] | 1.01 ± 0.021 | 1.03 ± 0.017
CN(C)/N=N/c1[nH]cnc1C(N)=O [Dacarbazine] | 0.948 ± 0.055 | 0.964 ± 0.012
CC[N+](C)(C)Cc1ccccc1Br [Bretylium tosylate] | 1.01 ± 0.025 | 1.04 ± 0.058
C[N+](C)(C)CCCCCC[N+](C)(C)C [Hexamethonium dibromide dihydrate] | 1.07 ± 0.06 | 1.05 ± 0.046
CN1C(C)(C)CCCC1(C)C [Pempidine tartrate] | 0.993 ± 0.026 | 1.048 ± 0.004
Cc1onc(-c2c(Cl)cccc2Cl)c1C(=O)N[C@@H]1C(=O)N2[C@@H]1SC(C)(C)[C@@H]2C(=O)O [Dicloxacillin sodium salt hydrate] | 1.03 ± 0.012 | 1.02 ± 0.031
CCOC(=O)[C@H](CCc1ccccc1)N[C@@H](C)C(=O)N1Cc2ccccc2C[C@H]1C(=O)O [Quinapril HCl] | 1.02 ± 0.022 | 0.97 ± 0.018
CC(CCc1ccccc1)NCC(O)c1ccc(O)c(C(N)=O)c1 (centres undefined) [Labetalol hydrochloride] | 1.06 ± 0.068 | 0.998 ± 0.06
O=C(O)c1cccnc1Nc1cccc(C(F)(F)F)c1 [Niflumic acid] | 1.07 ± 0.032 | 1.03 ± 0.039
COc1ccc(C(Cl)=C(c2ccc(OC)cc2)c2ccc(OC)cc2)cc1 [Chlorotrianisene] | 1.06 ± 0.064 | 0.996 ± 0.11
Cc1oncc1C(=O)Nc1ccc(C(F)(F)F)cc1 [Leflunomide] | 0.904 ± 0.065 | 0.959 ± 0.043
Fc1ccc(C(c2ccc(F)cc2)N2CCN(C/C=C/c3ccccc3)CC2)cc1 [Flunarizine dihydrochloride] | 0.841 ± 0.1 | 0.934 ± 0.049
N=C(N)c1ccc(OCCCCCOc2ccc(C(=N)N)cc2)cc1 [Pentamidine isethionate] | 0.596 ± 0.07 | 0.597 ± 0.085

SMILES | normalised cell viability (treatment time: 3 days) | normalised cell viability (treatment time: 6 days)
CCCCC(=O)O[C@H]1CC[C@H]2[C@@H]3CCc4cc(O)ccc4[C@H]3CC[C@]12C [Estradiol Valerate] | 0.984 ± 0.019 | 1.01 ± 0.16
COc1cccc2c1C(=O)c1c(O)c3c(c(O)c1C2=O)C[C@@](O)(C(=O)CO)C[C@@H]3O[C@H]1C[C@H](N)[C@H](O)[C@H](C)O1 [Doxorubicin hydrochloride] | 0.127 ± 0.0054 | 0.113 ± 0.0072
CCC(=O)O[C@@H](O[P@](=O)(CCCCc1ccccc1)CC(=O)N1C[C@H](C2CCCCC2)C[C@H]1C(=O)O)C(C)C [Fosinopril] | 1.15 ± 0.043 | 1.03 ± 0.16
CC1(C)S[C@@H]2[C@H](NC(=O)[C@H](N)c3ccc(O)cc3)C(=O)N2[C@H]1C(=O)O [Amoxicillin] | 1.25 ± 0.057 | 1.12 ± 0.16
OCCOCCN1CCN(C2=Nc3ccccc3Sc3ccccc32)CC1 [Quetiapine] | 1.1 ± 0.02 | 1.135 ± 0.0073
Nc1nc(Cl)nc2c1ncn2[C@H]1C[C@H](O)[C@@H](CO)O1 [Cladribine] | 0.245 ± 0.034 | 0.235 ± 0.0041
CN[C@@H]1[C@H](O[C@H]2[C@H](O[C@H]3[C@H](O)[C@@H](O)[C@H](N=C(N)N)[C@@H](O)[C@@H]3N=C(N)N)O[C@@H](C)[C@]2(O)C=O)O[C@@H](CO)[C@H](O)[C@H]1O [Streptomycin sulfate] | 0.985 ± 0.062 | 1.1 ± 0.06
C[C@]12CCC(=O)C=C1CC[C@@H]1[C@@H]2[C@@H](O)C[C@@]2(C)[C@H]1CC[C@]2(O)C(=O)CO [Hydrocortisone base] | 1.04 ± 0.045 | 0.989 ± 0.016
CCCCCCC[N+](CC)(CC)CCCCc1ccc(Cl)cc1 [Clofilium tosylate] | 0.842 ± 0.068 | 0.889 ± 0.12
CNCCCC1c2ccccc2C=Cc2ccccc21 [Protriptyline hydrochloride] | 0.919 ± 0.021 | 0.952 ± 0.014
Oc1ncnc2[nH]ncc12 [Allopurinol] | 1.06 ± 0.1 | 1.03 ± 0.053
C[N+]1(CCCCC[N+]2(C)CCCC2)CCCC1 [Pentolinium bitartrate] | 0.986 ± 0.1 | 0.992 ± 0.011
Cc1onc(-c2ccccc2)c1-c1ccc(S(N)(=O)=O)cc1 [Valdecoxib] | 1.1 ± 0.084 | 1.03 ± 0.03
CCCc1cc(=O)[nH]c(=S)[nH]1 [Propylthiouracil] | 1.02 ± 0.022 | 1.025 ± 0.009
CCCCN(CCCC)CCC(O)c1cc2c(Cl)cc(Cl)cc2c2cc(C(F)(F)F)ccc12 (centres undefined) [Halofantrine hydrochloride] | 0.815 ± 0.015 | 0.832 ± 0.052
C#C[C@]1(O)CC[C@H]2[C@@H]3CCc4cc(O)ccc4[C@H]3CC[C@@]21C [Ethinylestradiol] | 0.969 ± 0.028 | 1.05 ± 0.036
